{"source": "PubChem BioAssay AID493005", "about": "(National Center for Advancing Translational Sciences (NCATS), 2010)", "note": "Screen size: about 340,000 compounds; fewer than 10 were called active. This list was built around the results that the source calls inconclusive (neither active nor inactive); the mix of calls is not that of the screen. The call rests on the fitted dose curve; in most records, active means well fitted inhibition curve with a large enough effect in the main read-out, with a control signal flat (not every such curve was filed as active); inconclusive means small, poorly fitted or top-dose-only effect, or effect the other way, or a change in a side signal; inactive means no such curve, though single readings can be large or run the other way. A potency beside an inconclusive call is a rough fit, not a confirmed value. A note “side channel” means that the fit belongs to a control or component signal, not to the main read-out. Potency means the concentration at half of the fitted maximal effect; tags describe the fitted curve by direction and shape or compound fluorescence and quenching.", "data": [{"target": "Tumor susceptibility gene 101 protein (Homo sapiens) (UniProt Q99816)", "sequence (Q99816 whole entry, looked up, the tested form may be a part)": "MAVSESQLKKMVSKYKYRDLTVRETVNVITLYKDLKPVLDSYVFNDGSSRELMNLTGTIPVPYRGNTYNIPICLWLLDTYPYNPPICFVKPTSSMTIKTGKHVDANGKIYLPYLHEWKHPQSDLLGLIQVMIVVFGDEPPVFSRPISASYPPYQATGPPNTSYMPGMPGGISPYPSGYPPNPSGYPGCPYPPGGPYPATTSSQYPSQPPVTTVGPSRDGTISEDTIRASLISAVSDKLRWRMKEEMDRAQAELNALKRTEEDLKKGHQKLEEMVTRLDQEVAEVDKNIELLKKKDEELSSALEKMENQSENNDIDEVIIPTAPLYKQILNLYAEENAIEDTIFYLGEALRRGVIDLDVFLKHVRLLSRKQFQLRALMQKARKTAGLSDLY", "experiment": "qHTS Assay for Iinhibitors of HIV-1 Budding by Blocking the Interaction of PTAP/TSG101; on activity change, negative = inhibition: % of control where 0% means no effect", "details": "Fluorescence polarization, FITC-PTAP peptide / Tsg101 binding; activity change, negative = inhibition: at 115 µM (top of the series)", "method_in_brief": "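Tsg101 binding domain (10 uM final) was mixed with compound and a FITC-labeled PTAP peptide (50 nM final) in HEPES pH 7.5 buffer with NaCl, Tween 20, EDTA and TCEP; fluorescence polarization was read after 20 min at r.t.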", "values": [{"smiles": "Cc1c(Cl)cccc1NC(=O)CN1CCC(C(O)(c2ccccc2)c2ccccc2)CC1", "activity change, negative = inhibition": "inactive: 0%"}, {"smiles": "FC(F)(F)c1ccc(CN2C[C@@H]3C(c4ccc(Cl)nc4)C4(c5cccnc5)CC3(C4)[C@H]2c2ccccc2)cc1", "note": "(some centres undefined)", "activity change, negative = inhibition": "inactive: 3.86%"}, {"smiles": "O=C(c1ccc(S(=O)(=O)NCC2CCCO2)cc1)N1CCc2ccccc21", "note": "(centres undefined)", "activity change, negative = inhibition": "inactive: -4.08%"}, {"smiles": "O=C(CCc1ccccc1)N1CCCN(C(=O)CCc2ccccc2)CC1", "activity change, negative = inhibition": "inactive: -1.32%"}, {"smiles": "O=c1[nH][nH]c(-c2ccccc2)c1-c1ccccc1", "activity change, negative = inhibition": "inactive: -6.75%"}, {"smiles": "CCOCCCNc1nc2c(C)cccn2c(=O)c1/C=C1\\SC(=S)N(C(C)CC)C1=O", "note": "(centres undefined)", "Potency": "inconclusive: 11.2 µM [fluorescent, side channel, full curve, poor fit]"}, {"smiles": "COc1ccc(N=Cc2c(OC)ccc3ccccc23)cc1", "activity change, negative = inhibition": "inactive: -6.56%"}, {"smiles": "COc1ccc(C(=O)Nc2ccc(OCC(F)(F)C(F)F)c(C(F)(F)F)c2)cc1OC", "Potency": "inconclusive: 35.5 µM [quencher, side channel, partial curve, poor fit]"}, {"smiles": "Cc1ccc(NC(=O)CN2CCc3ccccc3C2)cc1S(=O)(=O)N(C)C", "activity change, negative = inhibition": "inactive: 0.495%"}, {"smiles": "O=C(O)CN1C(=O)/C(=C\\c2cn(CC(=O)N3CCOCC3)c3ccccc23)SC1=S", "Potency": "inconclusive: 56.2 µM [fluorescent, side channel, partial curve, poor fit]"}, {"smiles": "O=C1C2CCCCN2C(=O)N1CCN1CCN(c2cccc(Cl)c2)CC1", "note": "(centres undefined)", "activity change, negative = inhibition": "inactive: -0.268%"}, {"smiles": "CCOC(=O)/C(=C\\C=C1/Sc2cc(OCC)c(OCC)cc2N1CC)C(C)=O", "Potency": "inconclusive: 44.7 µM [fluorescent, side channel, partial curve, poor fit]"}, {"smiles": "CC[n+]1ccc(/C=C/c2c[nH]c3ccccc23)cc1", "Potency": "inconclusive: 79.4 µM [fluorescent, side channel, partial curve, poor fit]"}, {"smiles": "CCN(CC)c1ccc(/C=C2\\C(=O)c3ccc(C(=O)O)cc3C2=O)cc1", "Potency": "inconclusive: 89.1 µM [fluorescent, single point]"}, {"smiles": "CCc1ccccc1N=Cc1c(C)c(C#N)c2[nH]c3ccccc3n2c1=O", "Potency": "inconclusive: 56.2 µM [fluorescent, side channel, partial curve, poor fit]"}, {"smiles": "CCN(CC)c1ccc(/C=C2/C(=O)c3ccc(C(=O)O)cc3C2=O)cc1", "Potency": "inconclusive: 89.1 µM [fluorescent, single point]"}, {"smiles": "CCCCOC(=O)c1ccc(N=Nc2c(C)c(C#N)c(O)[nH]c2=O)cc1", "Potency": "inconclusive: 56.2 µM [fluorescent, side channel, partial curve, poor fit]"}, {"smiles": "CCOc1cc(CNc2ccccc2)cc(Br)c1OCC(=O)NC(C)(C)C", "Potency": "inconclusive: 39.8 µM [quencher, side channel, partial curve, poor fit]"}, {"smiles": "O=C(O)CCN1C(=O)/C(=C\\c2ccc(OCc3ccccc3)c(OCc3ccccc3)c2)SC1=S", "Potency": "inconclusive: 79.4 µM [fluorescent, side channel, partial curve, poor fit]"}, {"smiles": "O=C(O)CSc1c(O)c2ccccc2[nH]c1=O", "activity change, negative = inhibition": "inactive: -2.26%"}, {"smiles": "CCOC(=O)c1nnn(CC(=O)N2N=C(c3ccc(Cl)cc3)CC2c2ccccc2)c1C(=O)OCC", "note": "(centres undefined)", "activity change, negative = inhibition": "inactive: -0.861%"}, {"smiles": "COc1ccc(-n2nc(C(=O)NCC(=O)N3CCOCC3)c3ccccc3c2=O)c(OC)c1", "activity change, negative = inhibition": "inactive: -5.89%"}, {"smiles": "CC(OC(=O)c1c2c(nc3ccccc13)/C(=C\\c1ccc3c(c1)OCO3)CCC2)C(=O)Nc1ccc(S(N)(=O)=O)cc1", "note": "(centres undefined)", "Potency": "inconclusive: 31.6 µM [fluorescent, side channel, partial curve, poor fit]"}, {"smiles": "COc1ccc(/C=N/NC(=O)c2ccc(N)cc2)cc1Cn1cc([N+](=O)[O-])cn1", "Potency": "inconclusive: 79.4 µM [fluorescent, side channel, partial curve, poor fit]"}, {"smiles": "Cn1cc(C2=C(c3ccc(Cl)cc3Cl)C(=O)NC2=O)c2ccccc21", "Potency": "inconclusive: 56.2 µM [fluorescent, side channel, partial curve, poor fit]"}, {"smiles": "CNc1ccc(/C=C(\\C#N)c2ccccn2)cc1[N+](=O)[O-]", "activity change, negative = inhibition": "inactive: 5%"}, {"smiles": "COc1cc(/C=C2/SC(=S)N(CC(=O)Nc3nc4ccccc4s3)C2=O)cc(OC)c1OC", "Potency": "inconclusive: 56.2 µM [fluorescent, side channel, partial curve, poor fit]"}, {"smiles": "O=C1Nc2ccccc2/C1=C/c1cnc(-c2ccccc2)[nH]1", "Potency": "inconclusive: 56.2 µM [fluorescent, side channel, partial curve, poor fit]"}, {"smiles": "CC1(C)N=c2ccc([N+](=O)[O-])c(N)c2=[N+]1[O-]", "activity change, negative = inhibition": "inactive: -3.83%"}, {"smiles": "O=C(CCc1ccccc1)NCCSc1ccccc1", "activity change, negative = inhibition": "inactive: -3.44%"}, {"smiles": "Cc1c2ccccc2nc2c(F)c(NCCO)c(F)c(F)c12", "Potency": "inconclusive: 63.1 µM [fluorescent, side channel, partial curve, poor fit]"}, {"smiles": "N#Cc1ccsc1NC(=O)CSc1nncs1", "Potency": "inconclusive: 56.2 µM [falling, partial curve, poor fit]"}, {"smiles": "CCC(=O)NNC(=S)NC(=O)c1ccc(C)cc1", "activity change, negative = inhibition": "inactive: -1.52%"}, {"smiles": "CCSc1nnc(-c2sc3nnc(-c4ccccc4)c(-c4ccccc4)c3c2N)o1", "Potency": "inconclusive: 56.2 µM [fluorescent, side channel, partial curve, poor fit]"}, {"smiles": "Cc1ccc(C(=O)NN2C(=O)/C(=C/c3cn(C)c4ccccc34)SC2=S)cc1", "Potency": "inconclusive: 56.2 µM [fluorescent, side channel, partial curve, poor fit]"}, {"smiles": "N#CC1=C(SCC(=O)NC2CCCCC2)NC(=O)CC1c1ccco1", "note": "(centres undefined)", "activity change, negative = inhibition": "inactive: 1.67%"}, {"smiles": "Nc1c(C(=O)C2CC2)sc2nc(-c3ccccc3)cc(C(F)(F)F)c12", "Potency": "inconclusive: 79.4 µM [fluorescent, side channel, partial curve, poor fit]"}, {"smiles": "Cc1sc(NC(=O)c2ccc(F)cc2)c(CN2CCCCCC2)c1C", "activity change, negative = inhibition": "inactive: 3.82%"}, {"smiles": "CN1/C(=C\\C=C(/C#N)C(=O)Nc2ccccc2F)C(C)(C)c2ccccc21", "Potency": "inconclusive: 50.1 µM [fluorescent, side channel, partial curve, poor fit]"}]}]}
